Patent publication EP3970494A1 (priority 2020, dated 2022)

Test system: Phytophthora infestans
Type: cell-based
Conditions: micro titer plate, 405 nm, 7 days after inoculation, 18 °C

Row | Compound | Fungal growth at 31 ppm (%) PHYTIN [%]
1 | CO/N=C(/C(=O)OC)c1cccc(C)c1CO/N=C(\C)c1cnc(C)c(F)c1 [Example 100] | 0
2 | (2E)-2-methoxvimino-N-methyl-2-[3-methyl-2-[[(E)-1-[2-methyl-5-(trifluoromethyl)pyrazol-3-yl]ethylideneamino]oxymethyl]phenyl]acetamide [Example 118] | 18
3 | (2E)-2-methoxyimino-N-methyl-2-[3-methyl-2-[[(E)-1-[4-(trifluoromethyl)-6-vinyl-2-pyridyl]ethylideneamino]oxymethyl]phenyl]acetamide [Example 114] | 0
